We go through 46 compounds from article PMC4336329 (PLoS ONE, 2015).

The whole screen tested about 310,000 compounds, of which about 2,200 (0.71%) showed an effect of 50% or more. Effects have a minus sign here. Some of the results follow.

The target of the test is human ether-à-go-go-related gene (hERG) potassium channel (human, UniProt Q12809). Put plainly: primary screen, population patch clamp on CHO cells stably expressing hERG.
human ether-à-go-go-related gene (hERG) potassium channel, sequence (Q12809 whole entry, looked up): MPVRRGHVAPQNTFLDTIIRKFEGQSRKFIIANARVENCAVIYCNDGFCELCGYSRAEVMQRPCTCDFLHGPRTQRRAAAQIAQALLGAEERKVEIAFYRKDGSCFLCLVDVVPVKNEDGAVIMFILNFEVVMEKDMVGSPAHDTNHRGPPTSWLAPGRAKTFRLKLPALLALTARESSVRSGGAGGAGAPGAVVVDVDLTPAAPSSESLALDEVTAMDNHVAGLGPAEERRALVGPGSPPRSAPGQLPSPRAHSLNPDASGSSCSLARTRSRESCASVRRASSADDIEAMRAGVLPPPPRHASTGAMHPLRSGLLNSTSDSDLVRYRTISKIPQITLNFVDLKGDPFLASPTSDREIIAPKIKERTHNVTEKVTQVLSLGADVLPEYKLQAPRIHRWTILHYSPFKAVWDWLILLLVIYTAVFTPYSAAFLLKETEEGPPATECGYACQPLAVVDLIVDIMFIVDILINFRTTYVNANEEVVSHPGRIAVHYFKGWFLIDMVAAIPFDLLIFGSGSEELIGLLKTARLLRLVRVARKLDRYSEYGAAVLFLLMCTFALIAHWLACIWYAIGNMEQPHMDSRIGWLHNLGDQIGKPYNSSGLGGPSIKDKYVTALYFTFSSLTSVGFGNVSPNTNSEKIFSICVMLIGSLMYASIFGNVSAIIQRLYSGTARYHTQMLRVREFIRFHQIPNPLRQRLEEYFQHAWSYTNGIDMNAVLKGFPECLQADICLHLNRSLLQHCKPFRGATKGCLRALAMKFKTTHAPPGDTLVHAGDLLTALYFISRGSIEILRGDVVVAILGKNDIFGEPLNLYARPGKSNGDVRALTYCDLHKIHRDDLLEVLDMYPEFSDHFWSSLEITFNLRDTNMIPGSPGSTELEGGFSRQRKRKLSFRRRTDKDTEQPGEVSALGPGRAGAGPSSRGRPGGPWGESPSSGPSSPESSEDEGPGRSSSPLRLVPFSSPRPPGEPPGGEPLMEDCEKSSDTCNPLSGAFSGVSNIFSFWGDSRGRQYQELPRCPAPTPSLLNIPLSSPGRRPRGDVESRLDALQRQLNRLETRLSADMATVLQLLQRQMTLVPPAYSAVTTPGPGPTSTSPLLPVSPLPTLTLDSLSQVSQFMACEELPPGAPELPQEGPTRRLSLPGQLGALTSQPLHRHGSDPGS
Take `Cc1ccccc1N(CC(=O)NCC1CCCO1)C(=O)CCC(=O)Nc1nccs1` (stereo not shown): the “hERG current change (%, negative = inhibition) at 1uM” value was found to be 21.7%.

`Cc1[nH]c2ccccc2c1C(=O)COc1ccccc1`: the “hERG current change (%, negative = inhibition) at 1uM” value is listed as 10.9%. Take `Cc1cc(C)c(OCCN2CCOCC2)c(Cl)c1`: the “hERG current change (%, negative = inhibition) at 1uM” value was determined as 12.1%. As for `CN(Cc1ccccc1)C(=O)c1oc(=O)c2ccccc2c1-c1ccccc1`, the “hERG current change (%, negative = inhibition) at 1uM” value turned out to be 2.77%. To `CC(C)(C)NNC(=S)Nc1ccc(S(=O)(=O)N2CCOCC2)cc1` belongs 14.9%. As for `Oc1c(C=C2N=c3ccccc3=N2)sc(=S)n1-c1ccc2ccccc2c1`, the “hERG current change (%, negative = inhibition) at 1uM” value is given as 2.05%. To `CC(C)c1ccc(C(=O)N/N=C/c2cccc(Cl)c2Cl)cc1` belongs 11.4%. To `CC(C)C(C(=O)Nc1ncn[nH]1)N1C(=O)c2ccccc2C1=O` (stereo not shown) belongs 15.2%. Turning to `CCOc1ccc(C2C(C#N)=C(N)Oc3cc(C)[nH]c(=O)c32)cc1OC` (stereo not shown), the “hERG current change (%, negative = inhibition) at 1uM” value came to 2.61%.

For `Cc1n[nH]c(C)c1S(=O)(=O)N1CCC(C(=O)Nc2cccc(F)c2)CC1`, the “hERG current change (%, negative = inhibition) at 1uM” value was found to be 1.68%. In the case of `O=C(COc1ccc(Cl)cc1)NCCC1=CCCCC1`, the “hERG current change (%, negative = inhibition) at 1uM” value was 9.28%. For the compound `CCc1ccc(N(C(=O)c2csnn2)C(C(=O)NC(C)(C)C)c2ccncc2)cc1` (stereo not shown), the “hERG current change (%, negative = inhibition) at 1uM” value is listed as 7.8%. `CCOc1ccc(N2CC(C(=O)NC3CCCC3)CC2=O)cc1` (stereo not shown): the “hERG current change (%, negative = inhibition) at 1uM” value is given as -1.88%. Regarding `CC(/C=C/c1cccc([N+](=O)[O-])c1)=N/NC(=O)c1cccnc1`, the “hERG current change (%, negative = inhibition) at 1uM” value was -8.4%. `O=c1cc(O)nc(-c2ccc(Cl)cc2)s1`: the “hERG current change (%, negative = inhibition) at 1uM” value was 9.51%.

Take `N#CC1=C(SCc2ccccc2)NC(=O)CC1c1ccc(O)cc1` (stereo not shown): the “hERG current change (%, negative = inhibition) at 1uM” value is recorded as -0.029%. Consider `O=C(Oc1cccc([N+](=O)[O-])c1)c1ccc2c(=O)n3c(nc2c1)CCC3`, for which the “hERG current change (%, negative = inhibition) at 1uM” value is -0.88%.

As for `Cc1ccccc1Nc1nc2ccccc2s1`, the “hERG current change (%, negative = inhibition) at 1uM” value is reported as 7.12%.

Regarding `CCN1C(=O)/C(=C\C=C2/C=CC=CN2CC)SC1=S`, the “hERG current change (%, negative = inhibition) at 1uM” value was 9.62%.

Regarding `COc1cccc(C(=O)NN2C(=O)C3C4C=CC(O4)C3C2=O)c1` (stereo not shown), the “hERG current change (%, negative = inhibition) at 1uM” value is 17.7%. Take `O=C(NCc1ccccn1)c1ccc2nc(C3CCCCC3)oc2c1`: the “hERG current change (%, negative = inhibition) at 1uM” value came to 19.7%. Regarding `Cc1ccc(CNC(=O)c2cc3ccccc3oc2=O)cc1`, the “hERG current change (%, negative = inhibition) at 1uM” value turned out to be 11.6%. Consider `CCCCCCc1c(C)nc(-n2[nH]c(C)c(CCO)c2=O)[nH]c1=O`, for which the “hERG current change (%, negative = inhibition) at 1uM” value is 6.3%. For the compound `O=C(Cn1cnc2ccccc21)c1ccc(Br)cc1`, the “hERG current change (%, negative = inhibition) at 1uM” value was 3.54%. For the compound `CCOc1ccc(OCC)c(Nc2cc(C)nc3ncnn23)c1`, the “hERG current change (%, negative = inhibition) at 1uM” value was -7.97%. `CCOC(=O)C1=C(c2ccccc2)NC(=S)NC1c1ccc(C)c([N+](=O)[O-])c1` (stereo not shown): the “hERG current change (%, negative = inhibition) at 1uM” value amounted to 2.13%. Take `CCc1cc2ccccc2nc1Cl`: the “hERG current change (%, negative = inhibition) at 1uM” value is given as 5.34%. For the compound `CCn1nc(CC(=O)Nc2nnc(CC(=O)N3CCCC3)s2)c2ccccc2c1=O`, the “hERG current change (%, negative = inhibition) at 1uM” value was determined as 4.7%.

Regarding `Oc1ccc(-c2nc3ccccc3nc2-c2ccccc2)cc1`, the “hERG current change (%, negative = inhibition) at 1uM” value is on record as 8.65%. Take `COC(=O)c1sc2cc(C(F)(F)F)cnc2c1-c1cccnc1`: the “hERG current change (%, negative = inhibition) at 1uM” value is on record as 9.19%. As to `O=[N+]([O-])c1cccc(NC(=S)Nc2nc(-c3ccc(Cl)cc3Cl)cs2)c1`, the “hERG current change (%, negative = inhibition) at 1uM” value was 5.97%. In the case of `Clc1ccc(-c2nc(/C=N/N3CCOCC3)c3ccccn23)cc1`, the “hERG current change (%, negative = inhibition) at 1uM” value is 7.64%. Turning to `Cc1c(Cc2ccccc2)c(=O)oc2c(C)c(OCC(=O)N[C@@H](Cc3ccccc3)C(=O)O)ccc12`, the “hERG current change (%, negative = inhibition) at 1uM” value is reported as 5.64%. As for `Cc1cc2c3c(c1C)C1(C(=O)N3C(C)(C)CC2C)C(C#N)=C(N)Oc2n[nH]c(C)c21` (stereo not shown), the “hERG current change (%, negative = inhibition) at 1uM” value was -0.155%. The result for `Cc1csc(SCC(=O)NC(=O)NCCC(C)C)n1` reads -2.18%; that for `CCCN(CCC)C(=O)C1CC(=O)OC12CCOC(C)(C)C2` (stereo not shown), 11%. Regarding `CCC(=O)N1c2ccc(S(=O)(=O)CCC(=O)Nc3ccc(OC)cc3OC)cc2CC1C` (stereo not shown), the “hERG current change (%, negative = inhibition) at 1uM” value is listed as 13.1%.

Turning to `O=C(c1cc2ccccc2c(=O)o1)N1CCCc2ccccc21`, the “hERG current change (%, negative = inhibition) at 1uM” value worked out at 12.5%. The result for `Cc1cc2oc(=O)ccc2cc1[N+](=O)[O-]` reads 13.6%; that for `COc1cc(OC)cc(C(=O)OCC(=O)Nc2ccc(F)cc2F)c1`, 8.11%; that for `O=C(c1cc(-c2ccc(F)cc2)on1)N1CCOCC1`, 12.5%. With `COc1ccc(Cl)cc1NC(=O)CN(C)C(=O)c1ccc(N2CCCCCC2)c([N+](=O)[O-])c1`, the “hERG current change (%, negative = inhibition) at 1uM” value came out at 11.2%. On to `CC(C)C1Nc2ccc(C(=O)NCCCN3CCOCC3)cc2NC1=O` (stereo not shown), for which the “hERG current change (%, negative = inhibition) at 1uM” value is on record as 10%. As for `COc1cc(C(C(=O)NC2CCCC2)N(CCO)C(=O)Cn2nnc(-c3ccc(C)o3)n2)ccc1O` (stereo not shown), the “hERG current change (%, negative = inhibition) at 1uM” value is on record as 11.9%. With `Cc1cccc(C)c1NC(=O)CNC(=O)C12CC3CC(CC(O)(C3)C1)C2`, the “hERG current change (%, negative = inhibition) at 1uM” value came to 17.5%. Take `O=C(NCC(=O)N(c1cccc(F)c1)C(C(=O)NC1CCCC1)c1ccco1)c1ccco1` (stereo not shown): the “hERG current change (%, negative = inhibition) at 1uM” value came to 14.1%.
